Measured values from the antibiotic and cytotoxicity screens of Wong et al. (2023).
The list shows a part of the results.

Tested on: HepG2
Assay: cytotoxicity call (relative viability < 0.9)
Conditions: 10 µM

Compound	cytotoxicity call
C[C@@H]1CN([C@H](C)CO)C(=O)c2c(c3ccccc3n2C)-c2ccccc2CO[C@H]1CN(C)Cc1cccc(C(F)(F)F)c1	inactive
COc1cccc(C#Cc2ccc([C@H]3[C@@H](CO)N4C(=O)CN(S(=O)(=O)c5ccccc5C)C[C@@H]34)cc2)c1	inactive
Cc1ccc(S(=O)(=O)N(C)C[C@H]2Oc3ccc(NC(=O)Nc4ccc(C(F)(F)F)cc4)cc3C(=O)N([C@H](C)CO)C[C@H]2C)cc1	active
C[C@@H]1CN([C@H](C)CO)C(=O)c2cc(C#CCN(C)C)cnc2O[C@H]1CN(C)C(=O)CN1CCOCC1	inactive
C[C@H]1CN([C@@H](C)CO)C(=O)c2cccc(NC(=O)c3cnccn3)c2O[C@@H]1CN(C)S(=O)(=O)c1ccc(F)cc1	inactive
C[C@@H]1CN([C@@H](C)CO)C(=O)c2cc(NC(=O)C3CC3)ccc2O[C@@H]1CN(C)Cc1ccc(Oc2ccccc2)cc1	inactive
CCN(CC)CCOC(=O)C(c1ccccc1)C1CCCCC1.Cl (configuration not stated)	active
CS(=O)(=O)N1[C@@H]2c3ccc(-c4ccccc4)c(=O)n3C[C@H]1[C@H](CO)[C@H]2C(=O)NCC1CC1	inactive
Cc1noc(C)c1CO	inactive
CC[C@@H](N)c1ncnn1CC	inactive
O=C(CN1CCOCC1)N[C@@H]1CC[C@@H](CCNC(=O)C2CCC2)O[C@@H]1CO	inactive
C[C@H]1NC(=O)N[C@@H]1CCCCC(=O)O	inactive
COc1ccc(S(=O)(=O)Nc2ccc3c(c2)CC(=O)N([C@@H](C)CO)C[C@H](C)[C@@H](CN(C)S(=O)(=O)c2ccc(F)cc2)O3)cc1	inactive
C[C@@H]1CN([C@@H](C)CO)C(=O)Cc2cc(NS(C)(=O)=O)ccc2O[C@@H]1CN(C)C	inactive
CC(C)NC(=O)N(C)C[C@H]1Oc2cc(C#Cc3ccccn3)ccc2S(=O)(=O)N([C@@H](C)CO)C[C@H]1C	inactive
C[C@H](CO)N1C[C@H](C)[C@@H](CN(C)S(=O)(=O)c2ccccc2F)Oc2ncc(C#Cc3cccnc3)cc2C1=O	inactive

Compound	cytotoxicity call
COc1ccc2c3c(n(c2c1)C)[C@H](CO)N(CC1CCOCC1)C[C@]13CCN(CC1)C(=O)Cc1cccnc1	inactive
CC/N=C1\S[C@H](C(N)=O)CC(=O)N1CC	inactive
Cc1noc(C)c1NC(=O)Nc1ccc2c(c1)CC(=O)N([C@@H](C)CO)C[C@H](C)[C@@H](CN(C)S(=O)(=O)c1c(C)noc1C)O2	inactive
C[C@@H]1CN([C@@H](C)CO)C(=O)c2cc(NC(=O)Nc3ccc4c(c3)OCO4)ccc2O[C@@H](C)CCCCO[C@H]1CN(C)Cc1ccc(Cl)c(Cl)c1	inactive
Cc1noc(C)c1NC(=O)Nc1ccc2c(c1)C(=O)N([C@@H](C)CO)C[C@H](C)[C@H](CN(C)C(=O)NC1CCCCC1)OCCCC[C@H](C)O2	inactive
NC(=O)CCN1C(=O)[C@@H]2[C@@H](C1=O)[C@@H]1C=C[C@@H]2C1	inactive
COc1ccc(S(=O)(=O)N(C)C[C@@H]2OCCCC[C@@H](C)Oc3ccc(NC(=O)Nc4ccc(C(F)(F)F)cc4)cc3C(=O)N([C@@H](C)CO)C[C@H]2C)cc1	inactive
CC(C)(C)c1ccc(S(=O)(=O)Nc2nccnc2-c2ccc(CNCc3ccc4c(c3)OCO4)cc2)cc1	inactive
O=C(O)C=Cc1ccc(Cn2ccnc2)cc1	active
C[C@@H]1CCCCO[C@H](CN(C)Cc2ccc3c(c2)OCO3)[C@@H](C)CN([C@H](C)CO)C(=O)c2cc(NC(=O)Nc3ccc(F)cc3)ccc2O1	active
O=C(C[C@@H]1C[C@H]2c3cc(NC(=O)NC4CCCC4)ccc3O[C@H]2[C@H](CO)O1)NCc1ccc(Oc2ccccc2)cc1	inactive
COc1ccc(S(=O)(=O)Nc2ccc3c(c2)C(=O)N([C@@H](C)CO)C[C@H](C)[C@@H](CN(C)C(=O)Nc2c(C)noc2C)OCCCC[C@@H](C)O3)cc1	inactive
C=CCC[C@H](Cc1ccc(F)cc1)C(=O)OC[C@@H](NC(=O)[C@@H](CC=C)CC(=O)N(CCO)Cc1ccccc1)c1ccccc1	inactive
COc1ccc(NC(=O)N(C)C[C@H]2Oc3ncc(C#CCN(C)C)cc3C(=O)N([C@H](C)CO)C[C@@H]2C)cc1	inactive
Cc1ccc(S(=O)(=O)Nc2ccc3c(c2)CC(=O)N([C@@H](C)CO)C[C@@H](C)[C@@H](CN(C)S(=O)(=O)c2cccs2)O3)cc1	inactive
C[C@@H]1CN([C@@H](C)CO)C(=O)c2cccc(NS(=O)(=O)c3ccc(F)cc3)c2O[C@@H]1CN(C)Cc1ccncc1	inactive
